US20090081195A1 (OTTAWA HEALTH RESEARCH INSTITUTE, published 2009)

Molecular target: T1, in vitro translated [35S]-labeled Ldb2 (mouse, UniProt O55203 1-373, [35S]-methionine label)
T1 construct: Made with the TNT coupled transcription/translation kit; also called Ldb2 FL; CLIM1
T1 sequence (looked up): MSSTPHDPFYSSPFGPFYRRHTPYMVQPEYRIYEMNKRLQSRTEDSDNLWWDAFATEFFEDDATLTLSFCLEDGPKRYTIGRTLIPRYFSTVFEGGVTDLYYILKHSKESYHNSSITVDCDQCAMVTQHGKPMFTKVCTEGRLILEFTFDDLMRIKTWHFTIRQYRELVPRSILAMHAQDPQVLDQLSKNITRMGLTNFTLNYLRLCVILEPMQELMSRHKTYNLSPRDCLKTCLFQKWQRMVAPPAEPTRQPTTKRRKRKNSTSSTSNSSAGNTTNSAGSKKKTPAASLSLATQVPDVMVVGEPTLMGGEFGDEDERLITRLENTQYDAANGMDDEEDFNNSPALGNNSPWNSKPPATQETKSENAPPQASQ
Assay: GST pulldown of [35S]-labeled in vitro translated Ldb2
Description: Interactions of Ldbs and SLK were confirmed by direct binding assays. In vitro translated Ldbs labeled with [35S]-methionine was incubated with various GST-SLK fusion protein deletions (FIGS. 16c and d). […] Ldb1 was also able to bind directly to the SLK-ATH domain in vitro in a manner that was indistinguishable from Ldb2 (not shown).

binding result: no binding
B1: GST alone (other)
chain: not shown
notes: Control in the pulldown assays
